# Assay results published in PubChem BioAssay AID1468 (National Center for Advancing Translational Sciences (NCATS), 2008).
# The campaign covered roughly 280,000 compounds. About 1,100 (0.39%) were called active. Inconclusive results, whose numbers are uncertain, are shown with a selection of clear calls. Calls follow the shape of the dose curve; as a rule, active = well fitted inhibition curve with a large enough effect; inconclusive = small, poorly fitted or top-dose-only effect, or effect the other way; inactive = flat fitted curve, though single readings scatter. No potency is given beside an inconclusive call; the fits are too rough.
# Target: Microtubule-associated protein tau (Homo sapiens) (UniProt P10636)
# Sequence of UniProt P10636 (P10636 whole entry, looked up): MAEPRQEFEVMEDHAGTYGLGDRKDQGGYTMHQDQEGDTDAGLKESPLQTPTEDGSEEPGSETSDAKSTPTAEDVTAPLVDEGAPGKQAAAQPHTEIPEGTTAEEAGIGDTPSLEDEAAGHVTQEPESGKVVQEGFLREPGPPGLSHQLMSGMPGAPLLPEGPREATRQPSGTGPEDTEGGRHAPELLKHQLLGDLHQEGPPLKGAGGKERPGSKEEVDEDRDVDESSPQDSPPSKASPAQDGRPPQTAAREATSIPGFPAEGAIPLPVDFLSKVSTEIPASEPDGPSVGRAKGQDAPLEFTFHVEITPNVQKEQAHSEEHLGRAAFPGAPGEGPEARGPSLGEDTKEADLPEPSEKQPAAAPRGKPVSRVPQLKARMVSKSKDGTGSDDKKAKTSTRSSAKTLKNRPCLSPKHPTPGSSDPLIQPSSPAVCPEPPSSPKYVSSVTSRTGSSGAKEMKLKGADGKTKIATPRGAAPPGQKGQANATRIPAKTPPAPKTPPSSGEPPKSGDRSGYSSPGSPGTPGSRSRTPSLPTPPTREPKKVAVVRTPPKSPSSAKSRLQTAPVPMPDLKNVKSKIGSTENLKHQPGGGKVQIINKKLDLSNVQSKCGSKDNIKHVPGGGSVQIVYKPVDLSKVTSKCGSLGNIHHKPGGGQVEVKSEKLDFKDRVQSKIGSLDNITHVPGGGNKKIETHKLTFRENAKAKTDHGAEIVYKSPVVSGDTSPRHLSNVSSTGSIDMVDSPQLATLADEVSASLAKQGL
# Test: qHTS for Inhibitors of Tau Fibril Formation, Fluorescence Polarization; also: nearly all actives have a fitted effect of over 55% in size
# Conditions: K18 P301L tau heparin fibrillization, Alexa594 FP, 6 h; series mostly up to 57.7 µM
# Method in brief: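 Human K18 P301L fragment (15 uM unlabeled plus 0.24 uM Alexa 594-labeled) in 100 mM sodium acetate pH 7 with compound, aggregation induced by 20 uM heparin for 6 hr at 37 C. ThT (30 uM) added for 1 hr, then Alexa 594 FP read.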
# Potency is read from the fitted curve at half-maximal effect; tags tell the direction and shape of the fitted curve.
row,Compound,Potency
1,Cc1ccc2oc3c(c(=O)c2c1)C(c1ccc(F)cc1)N(c1nc(C)c(C)s1)C3=O (stereo unspecified),inactive
2,O=C(Oc1cccc(NC(=O)c2ccco2)c1)c1ccc(Br)c(S(=O)(=O)N2CCCCC2)c1,"inconclusive [inhibitor, partial curve]"
3,O=c1c2ccccc2sn1-c1ccccc1,"inconclusive [inhibitor, partial curve]"
4,CCOC(=O)c1c(C)n(CCNC(C)=O)c2ccc(O)cc12,inactive
5,CNc1ccccc(-c2ccc3cc4c(cc3n2)OCO4)c1=O,inactive
6,COCCCNc1ncnc2c1cnn2-c1ccc(F)cc1,inactive
7,Cc1cc(NC(=O)/C=C/c2ccc(F)cc2)n(-c2nc3ccccc3[nH]2)n1,"inconclusive [inhibitor, single point]"
8,CCc1ccc(NC(=O)Cn2c3ncccc3c(=O)n2-c2ccc(C)c(C)c2)cc1,"inconclusive [inhibitor, partial curve]"
9,O=C(N/N=C\c1ccc(CN(Cc2ccc(Cl)cc2)S(=O)(=O)c2ccccc2)o1)C(=O)Nc1ccc(F)cc1,"inconclusive [inhibitor, single point]"
10,Cc1cc(C(=O)N/N=C\C(Br)=C\c2ccccc2)c(C)o1,"inconclusive [inhibitor, partial curve]"
11,COc1cc(C2C(C(C)=O)=C(O)C(=O)N2CCN2CCOCC2)ccc1O (stereo unspecified),inactive
12,Cc1ccc(C(=O)Nc2nc3ccccc3s2)s1,inactive
13,O=C(NCc1ccco1)c1ccc(COCC(F)(F)C(F)F)cc1,"inconclusive [inhibitor, partial curve, poor fit]"
14,Nc1cccc2nsnc12,"inconclusive [inhibitor, partial curve]"
15,COc1cc(C)c2c(=O)cc(-c3ccccc3)oc2c1,"inconclusive [inhibitor, single point]"
16,COc1ccc([N+](=O)[O-])cc1C(=O)Nc1ccc(Cc2ccncc2)cc1,inactive
17,COc1ccc(-n2c(NCCN(C)C)nc3sc4c(c3c2=O)CCCCC4)cc1,"inconclusive [activator, single point]"
18,Cc1ccc(NC(=O)N2CCc3cc(S(=O)(=O)N4CCC(C)CC4)ccc32)cc1C,"inconclusive [inhibitor, partial curve]"
19,COc1cc(/C=C2\SC(=N)N(c3ccc(F)cc3)C2=O)ccc1O,"inconclusive [activator, single point]"
20,Cc1cccc(C(=O)N2CCC(=O)N(C(COCc3ccc(Cl)cc3)Cc3ccccc3)CC2)c1 (stereo unspecified),"inconclusive [inhibitor, single point]"
21,CCOC(=O)c1ccc(Nc2ncnc3c2cnn3-c2cccc(Cl)c2)cc1,"inconclusive [inhibitor, partial curve]"
22,N=c1c2c(ncn1Cc1ccco1)Oc1ccc3ccccc3c1C2c1ccccc1 (stereo unspecified),"inconclusive [inhibitor, partial curve]"
23,Cc1ccccc1-c1nc(CS(=O)(=O)CC(=O)NCc2cccc(Cl)c2)c(C)o1,inactive

row,Compound,Potency
1,NC(=O)c1c(NC(=O)COC(=O)CSc2nnc(-c3ccc(Cl)cc3)o2)sc2c1CCC2,"inconclusive [activator, single point]"
2,Cc1noc(/C=C/c2ccco2)c1S(=O)(=O)N1CCC(C(=O)Nc2ccc(F)c(Cl)c2)CC1,"inconclusive [inhibitor, partial curve, poor fit]"
3,C/C(=N\NC(=O)c1ccc(OC2OCCOC2Oc2ccc(C(=O)N/N=C(\C)c3ccncc3)cc2)cc1)c1ccncc1 (stereo unspecified),"inconclusive [inhibitor, single point]"
4,O=C(Cc1ccccc1)NCCc1cccc(Cl)c1,inactive
5,N[C@@H](CSS(=O)(=O)O)C(=O)O,active: 17.8 µM
6,COc1ccc(NC(=O)C(OC(=O)c2ccc([N+](=O)[O-])o2)c2ccccc2)cc1Cl (stereo unspecified),"inconclusive [inhibitor, single point]"
7,C=Cc1ccc(CN2C(=O)N(c3cccc(Cl)c3)S(=O)(=O)c3ccccc32)cc1,"inconclusive [inhibitor, single point]"
8,CCNC(=S)N(CCc1c(C)[nH]c2ccc(C)cc12)Cc1cccs1,"inconclusive [activator, full curve]"
9,Cc1cc(C)c(S(=O)(=O)/N=C2/C=C(Sc3ncn[nH]3)C(=O)c3ccccc32)cc1C,inactive
10,Cc1ccc(-c2nnc3n2CCCCC3)cc1,inactive
11,COc1ccccc1C(=O)NCCn1cc(SCc2ccccc2Cl)c2ccccc21,inactive
12,COc1ccccc1C(=O)Nc1nc(-c2ccccc2)ns1,"inconclusive [inhibitor, partial curve]"
13,Cc1ccc(C(=O)C[n+]2cc(Br)cc(Br)c2)cc1,inactive
14,COC(=O)c1ccccc1NC(=O)Cn1nnc2sc(-c3ccccc3)cc2c1=O,inactive
15,O=C(Nc1cccc(OC(F)(F)F)c1)c1ccc(Br)o1,"inconclusive [inhibitor, partial curve]"
16,COc1ccc(-c2nc(-c3ccccc3)c(-c3ccc(O)cc3)[nH]2)cc1,"inconclusive [activator, single point]"
17,O=C(Nc1cnc2ccccc2c1)c1ccco1,"inconclusive [inhibitor, full curve, poor fit]"
18,CCCCC(=O)Nc1ccc(C(=O)NNC(=S)NC(=O)c2cccs2)cc1,inactive
19,Cn1cc(/C=C/c2nc3ccccc3c(=O)n2-c2cccc([N+](=O)[O-])c2)c2ccccc21,"inconclusive [activator, full curve, poor fit]"
20,COc1ccc(Cn2c(C(=O)O)c(CNC3CCCCCC3)c3ccc(OC)cc32)cc1,inactive
21,c1ccc(CNc2ccc3c(c2)ncn3C2CCCCC2)nc1,inactive
22,O=C(CSC1=NNC(c2ccccn2)S1)Nc1ccccc1 (stereo unspecified),"inconclusive [inhibitor, partial curve]"
23,CCOc1cc(/C=N/NC(=O)c2ccc(O)cc2)ccc1Oc1nc(Cl)ncc1F,"inconclusive [inhibitor, single point]"
